The source gives no read counts; variants with many changes may rest on few reads.
B1: LINE1-mini (parent)
chain: GGCAGAGCUCAACACAGCGUGGCAAAGUGGCUGUGGCUAGACUGCC

Variants of: B1
Assay: self-cleavage, relative activity (ratio to wild type); higher = more cleavage; in vitro, sequencing; the parent is a self-cleaving ribozyme

| Variant | self-cleavage |
| --- | --- |
| CGCAGAGCUCUACACAGCGUGGCAAAGUGGCUGUGGCUAGACUGCG | 0.09 |
| CGCAGAGCUCAACGCAUCGUGGCAAAGUGGCUGUGGCUAGACUGCC | 0.04 |
| CGCAGAGCUCAUCACAGCGUGGCAAAGUGGCUGAGGCUAGACUGCC | 0.01 |
| CGCAGAGCUCCACACAGCGUGGCAAAGUGGCGGUGGCUAGACUGCC | 0.01 |
| CGAAGAGCUCAACACAGCGUUGCAAAGUGGCCGUGGCUAGACUGCC | 0.1 |
| CGUAGAGCUCAACACAGCUUGGCAAAGCGGCUGUGGCUAGACUGCC | 0.26 |
| CGCAGAGCUCAUCACAGCGUGGCAAAGUGGCUGUGGCUACACUGCC | 0.01 |
| CGCAGAGCUCAACACCGCGUGGCAAAGUGGCUGUGCCUAGACUGCC | 0.01 |
| CGCAGAGCUCAACACCGCGUGGCAAAGUGGCUGUGUCUAGACUGCC | 0.02 |
| CGGAGAGCUCAAAACAGCGUGGCAAAGUGGCUGUGGCUAGACUGCC | 0.11 |
| CGCAGAGCUCAACACGGUGUGGCAAAGUGGCUGUGGCUAGUCUGCC | 0.1 |
| CGCAGAGCUCUACACAGCGUGGCAAAGUGGCUGUGGCUACACUGCC | 0.01 |
| CGCAGAGCUCAACACAGCGUGGCAAUGUGGCCGUGGCUAGACCGCC | 0.03 |
| CGCAGAGCUCAUCACAGCUUGUCAAAGUGGCUGUGGCUAGACUGCC | 0.02 |
| CGCAGAGCUCAACACAGCGUGGCAGUGUGGCUGUGGCUAGAUUGCC | 0.03 |
| CGGAGAGCUCAACACAGCCUGACAACGAGGCUGUGGCUAGACUUCC | 0.22 |
| CGCAGAGCUCAACACGGCGUGGCAAAUUGGCUGUGGCUAGACUGCC | 0.1 |
| CGCAGAGCUCAACACAGCGUGGCAAUGUGGCUGUUGCUAGACUGCC | 0.2 |
| CGCAGAGCUCGACACAGCGUGGCAAAGUGGCUGUGGCAAGACUGCC | 0 |

| Variant | self-cleavage |
| --- | --- |
| CGCAGAGCUCAUCACAGAGUGGCAAAGUGGCUGUAGAUAGACUGUC | 0 |
| CGCAGAGCUCGACACAGCGUGGCAAAGUAGCUGUGGCUAGACUGCC | 0.03 |
| CGCAGAGCUCAACACUGCGAGGUAAAGUGGCUAUGGCUAGACUGCC | 0.01 |
| CGCAGAGCUCAGCACAGCGUGGCAAUGUGGCUGUGGUUAAACUGCC | 0.07 |
| CGCAGAGCUCAACACAGCGUGGCUAAGUGGCAGUGGCUAGAUCGCC | 0.01 |
| CGCAGAGCUCAACACAGCGUGGCUAAGUGGCGGUGGCUAGACUGCU | 0.07 |
| CGUAGAGUUCAACACAGCAUGGCAAAGUGGCUGUGGCUAGACUGCC | 0.42 |
| CGCAGAGCUCAACACAGCGUGGCAACGGGGCUUUGGCUAGACUGCC | 0 |
| CGGAGAGCUAAACACAGCGUGGCAAAGUGGCUGUGGCUAUACUGCC | 0.01 |
| CGCAGAGCUCAACACAGCGUGGCGAAGUGGCUGUGCCUAGACUGCC | 0 |
| CGCAGAGCUCGGCACAGCGUGGGAAAGUGGCUGUGGCUAGACUGCC | 0.01 |
| CGCAGAGCUCGACACAGCGUAGCAAAGUGGCUGUUGCUAGACUGCC | 0.01 |
| CGCAGAGCUCAACGCAGCGUGGCAAAGCGGCUGUGGCAAGACUGCC | 0 |
| CGCAGAGCUCUAAACAGCGUGCCAAAGCGGCUGUGGCUAGGCUGCC | 0 |
| CGAAGAGCGCAACACAGCGUGGCAAAGUAGGUGUGGCUAGACUGCC | 0.03 |
| CGCAGAGCUCAUCACAGCAUGGCAAAGUGGCUGUGCCUAGACUGCC | 0.01 |
| CGCAGAGCUCAUCACAGCAUGGGAAAGCGGCUGUGGCUAGACUGAC | 0.08 |
| CGUAGAGCUCAACACAGCGUGGCAAAGUGGGUGUGGCUAGACUGCC | 0.03 |
| CGCAGAGCUCAACACAGCGUGGCAAAGUGGCUGUGGCUUGAGUGCC | 0.04 |

| Variant | self-cleavage |
| --- | --- |
| CGCAGAGCUCAACACAGCGUGGCCAAGUGGCUGUGGCUAUACUGCC | 0.02 |
| CGCAGAGCUCAACGCAGCGUGGCAAGGUGGCUGUGGCUAGACUGCC | 0.04 |
| CGCAGAGCUCAACACAGCGUGGCGAAGUGGCUGUGGCUAGAAUGCC | 0.02 |
| CGCAGAGCUCGACACAGCGUGGCGAAGUCGCUGUGGCUAGCCUGAC | 0.01 |
| CGAAGAGCUCAACACAGUGUGGCAAAGUCGCUGUGGCUAGACUGCC | 0.08 |
| CGGAAAGCUCAACAAAGCGUGGCAAAGUGGCUUUGGCUAUAUUGCC | 0.02 |
| CGGAGUGCUCAACACAGCGUGGCAAAGUUGCUGUGGCUAGACUGCC | 0.21 |
| CGCAGAGCUCAUCACAGCGUGUCAAAGUGGCUGAGGCUAGACUGCC | 0.02 |
| CGGAGAGCUCAACACAGUGUGGCAUAGUGGCUGUGGCUAGACUGCC | 0.08 |
| CGGAGAGCUCAACAAAGCGUGGCAUAGUGGCUGUGGCUAGACUGGC | 0.13 |
| CGCAGAGCUCAACACUGCGUGGCAACGUGGCUGUGGAUAGACUGCC | 0.14 |
| CGGAGAGCUCAACACCGCGUGGCAAAGUGGCUGUGGCUAGACUGCC | 0.22 |
| CGCAGAGCUCAACUCAGCGUGGCAAAGUGGCUUUGGCUAGACUGCC | 0.04 |
| CGCAGAGCUCAGUACUGCCUGGCAAAGUGGCUGAGGCUAGACUGGC | 0.01 |
| CGCAGAGCUCAACACGGCGUAGAAAAGUGGCUGUGGCUAGACUGCC | 0.08 |
| CGCAGAGCUCAACACAGCGUGGCAAAGUGGCUGUGGCUAGUCUGUA | 0.06 |
| CGCAGAGCUCAGCACAGCGGGGCACAGUGGCUGUGGCUAGACUGCC | 0 |
| CGGAGAGCUAAACACAUCGUGGCAAAGUGGCUGUGGCUAGACUGCC | 0.03 |

From the RNAGym collection of RNA variant scans (doi:10.7554/elife.90254)
